Reference: the supplement of paper PMC11417369
The other results are listed elsewhere or left out.

The sequences below were run on PfAP2-HC AP2 domain (GST-tagged) (assay: gcPBM binding intensity (ln(normalized median fluorescence intensity)); higher = stronger DNA binding).
Summary of the method: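 An Agilent 4 × 180k array of primer-extended double-stranded 36-bp intergenic genomic probes, with negative controls, was incubated for 1 h with GST-tagged P. falciparum DNA-binding domains expressed in E. coli. Alexa488 anti-GST antibody detected bound protein, scanned at 488 nm. Binding intensity is the highest Masliner-normalised natural-log median intensity across replicate spots of either probe orientation.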

Row | Sequence | gcPBM binding intensity (ln)
1 | CATATCATTGATTATAGTACACATACCATTTTTTAT [XGTACX_site6572] | 9.81
2 | AATAAAAATAATATAGTGCATAATATAAGGAAAAAA | 9.87
3 | TTAAAAAAATATAGAGCATGCTAAAAATAAAAAAAT [TGCATGCA_site794] | 10.2
4 | CAACACTTAGATTTTAAGTTCACTGGTTAATATATA [CACACA_negctrl_site707] | 9.48
5 | AGGTCTATATAATAAGTGCATTTTTTTTTTTTTTTT [GTGCAC_site9664] | 9.49
6 | GTTATACTCATCAACACACACATACAACGTGGTGTA [CACACA_site4789] | 10.2
7 | AGTAATATAATATAAGCACACGTGTATTTATTTAGG [CACACA_site7921] | 9.88
8 | AAAAAAAAAAAAAAATACAAGCACATTTATATAAGC [GTGCAC_negctrl_site695] | 9.77
9 | AAATACATTAAAATGACATGCAGATATATATCAAAA [TGCATGCA_site477] | 9.85
10 | TATATATCAATATTTACACACATGCGCCCACATAAA [CACACA_site7185] | 10.1
11 | TATATGTTTGAATATACACACAACATATTTATATAT [CACACA_site7832] | 9.74
12 | AAAAAAAAAAAATATGTACACACATATATAATACAT [CACACA_site8473] | 9.99
13 | TTTTTTGTTAAAAGAGTGCAAATTTTTAAAGATTTG [GTGCAC_site9502] | 9.21
14 | TTTTTTTCTTTTGGGAGTACCAACATTTTCACATAT [XGTACX_site1371] | 9.85
15 | CTATGCCCCATATAAACACACAAATAAAAAGAATAT [CACACA_site2681] | 9.89
16 | AAAAAAAAAAGACACACACACACAAATACATACACA [CACACA_site6472] | 10.8
17 | TGAATAAAGATATATACACACATATAGGTATATATC [CACACA_site6870] | 9.86
18 | TGCTTATATTTTTATACACACAAGATACTTTTTGTT [CACACA_site1535] | 9.89
19 | TAAGAATTGAAAAAATGTACACAATATAAAATTGAA [XGTACX_site698] | 9.63
20 | AAAACAAATAAGTAAACACACATATAAAATCTATAT [CACACA_site7262] | 10.1
21 | CCTATTTATTTATACACACACATATATAAATAAATA [CACACA_site7417] | 9.89
22 | TTATGTAAATGCTTATGTACTTATTACAATATTTTT [XGTACX_site4057] | 9.81
23 | AAAAAGAAAAAAAAATGTACATAAAGTCTAATGATA [XGTACX_site4781] | 9.71

Row | Sequence | gcPBM binding intensity (ln)
24 | TTTATTACTATGTAAACACACATGCAATATATGTTA [CACACA_site1114] | 9.72
25 | ATATTATATAAATACACACACACATGCATGCACATA [CACACA_site4236] | 11.2
26 | AAAAAGAATAAATAAATAAATAAATATATATATATA [GTGCAC_negctrl_site584] | 9.79
27 | TATTAATCATATAAATGTACGTATATATATTTTTCT [XGTACX_site1421] | 9.68
28 | ATATATATATATATAACACACGTGTATATATATGTA [CACACA_site3644] | 9.83
29 | CAATCATAGAAAAACAGTACGTGTAGCAAACATCCT [XGTACX_site4889] | 9.76
30 | TATAATATATTATAACGTACAAATATATATATAAAA [XGTACX_site6581] | 9.72
31 | AAAAAAAAAAAATATATATATATATATATATATATA [CACACA_negctrl_site1606] | 10.1
32 | TATATATATTATATATGTACATATATTTTTTTTTTT [XGTACX_site127] | 9.7
33 | ATTTATATTACAAAAAGTACACACATAAATAAATAC [XGTACX_site1827] | 9.8
34 | GAAAATATAAAAAAAAGTACATTTTCTCTAAATATA [XGTACX_site2441] | 9.54
35 | AAAAAGGGTATTATTACACACACGTAAATATTAAGA [CACACA_site4233] | 10.3
36 | AAAAAAAAATTATATACACACATATAAATATATATA [CACACA_site1197] | 9.72
37 | CTATATAATATGAGCACACATAAGATTTGGTGTTAT [CACACA_site744] | 9.73
38 | AAAATCTAGGTATTTATACACACTAAAATAATATAC [CACACA_site623] | 9.72
39 | CAAATACAGAAACACACACACATATACATATATATA [CACACA_site3498] | 10.4
40 | TATATATATATATGGGGTACAAATGGTCAGTATTAT [XGTACX_site1223] | 9.93
41 | ATGTTATTAAAAAAGGGTACACATCTTTTATGTTAA [XGTACX_site812] | 9.65
42 | ATTACACATATAGTAGTGCAATAACTCCAAAAAAAA | 9.57
43 | TTTAAATATAATTGGAGTACTTATAATATATATATA [XGTACX_site7247] | 9.44
44 | AATATGTAATAGTGTACACATATATCTGTATTTATG [CACACA_site4252] | 9.78
45 | TTTTAAACAAGACACACACACATATATATATATATA [CACACA_site925] | 9.98
